We go through 88 molecules from publication PMC4336329 (PLoS ONE, 2015).

Structures are written as SMILES. In all, about 310,000 compounds went through this assay and about 2,200 (0.71%) showed an effect of 50% or more. The effect is printed as a negative number. Some of the results follow.

For this assay, the target named is human ether-à-go-go-related gene (hERG) potassium channel (human, UniProt Q12809). The assay is described as follows: primary screen, population patch clamp on CHO cells stably expressing hERG.
human ether-à-go-go-related gene (hERG) potassium channel, sequence (Q12809 whole entry, looked up): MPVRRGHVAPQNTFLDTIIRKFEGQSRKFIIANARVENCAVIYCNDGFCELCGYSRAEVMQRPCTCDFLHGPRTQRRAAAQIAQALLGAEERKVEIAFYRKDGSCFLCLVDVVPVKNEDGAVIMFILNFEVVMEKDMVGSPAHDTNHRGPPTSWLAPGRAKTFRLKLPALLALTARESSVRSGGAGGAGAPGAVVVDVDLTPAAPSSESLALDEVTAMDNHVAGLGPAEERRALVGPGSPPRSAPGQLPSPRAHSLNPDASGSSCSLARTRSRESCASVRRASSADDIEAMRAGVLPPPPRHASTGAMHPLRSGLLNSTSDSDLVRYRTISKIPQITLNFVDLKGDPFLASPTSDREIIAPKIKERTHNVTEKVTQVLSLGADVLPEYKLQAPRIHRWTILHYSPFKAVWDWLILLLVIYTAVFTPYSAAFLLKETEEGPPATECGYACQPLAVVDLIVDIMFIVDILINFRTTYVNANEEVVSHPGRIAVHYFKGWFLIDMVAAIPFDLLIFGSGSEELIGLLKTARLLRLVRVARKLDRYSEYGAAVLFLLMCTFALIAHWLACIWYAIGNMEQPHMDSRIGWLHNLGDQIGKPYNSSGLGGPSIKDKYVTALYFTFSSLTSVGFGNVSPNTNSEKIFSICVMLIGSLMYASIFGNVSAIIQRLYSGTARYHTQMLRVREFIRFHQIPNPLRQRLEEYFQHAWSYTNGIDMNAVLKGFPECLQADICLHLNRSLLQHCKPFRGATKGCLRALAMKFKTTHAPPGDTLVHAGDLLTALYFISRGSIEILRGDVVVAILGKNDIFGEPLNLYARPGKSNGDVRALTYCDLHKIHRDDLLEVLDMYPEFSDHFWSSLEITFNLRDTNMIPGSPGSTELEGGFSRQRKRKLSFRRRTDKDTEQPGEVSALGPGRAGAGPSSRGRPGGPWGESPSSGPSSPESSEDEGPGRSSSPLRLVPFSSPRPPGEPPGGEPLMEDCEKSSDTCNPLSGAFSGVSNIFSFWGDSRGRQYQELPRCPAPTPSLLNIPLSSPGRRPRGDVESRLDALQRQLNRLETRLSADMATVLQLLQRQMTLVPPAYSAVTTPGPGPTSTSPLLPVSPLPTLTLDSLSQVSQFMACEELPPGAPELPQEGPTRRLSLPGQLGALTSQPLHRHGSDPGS
As to `O=C(O)C(CC1CCCCC1)N1CCS(=O)(=O)CC1` (stereo not shown), the “hERG current change (%, negative = inhibition) at 1uM” value is reported as 13.6%.
On to `Nc1nc(N)nc(-c2cc(F)ccc2O)n1`, for which the “hERG current change (%, negative = inhibition) at 1uM” value stood at 12.1%.
For `COCC(C)OC(=O)C(C#N)c1nc2ccccc2nc1N1CCN(Cc2ccccc2)CC1` (stereo not shown), the “hERG current change (%, negative = inhibition) at 1uM” value is recorded as -3.9%.
In the case of `COc1ccccc1C(=O)N1CCN(Cc2ccc3c(c2)OCO3)CC1`, the “hERG current change (%, negative = inhibition) at 1uM” value was found to be 9.27%.
Regarding `Nc1ccc2oc(-c3cccc(Br)c3)nc2c1`, the “hERG current change (%, negative = inhibition) at 1uM” value is reported as 2.68%.
In the case of `O=C(NCc1ccc2c(c1)OCO2)Nc1ccc(F)cc1`, the “hERG current change (%, negative = inhibition) at 1uM” value amounted to 1.65%.
For `Cc1ccc(NC(=O)CCC(=O)c2ccc(F)cc2)cc1Cl`, the “hERG current change (%, negative = inhibition) at 1uM” value is -2.75%.
With `Cc1ccc(C)c(CN2CCC(CNC(=O)Nc3ccc(Cl)cc3)CC2)c1` the figure was -26.8%.
With `Cc1ccc(C(=O)N/N=C\c2cccn2C)cn1` the figure was 22.4%; with `Cc1ccc(CNC(=O)c2ccc3c(c2)NC(=O)C(N2CCOCC2)S3)cc1` (stereo not shown), 9.54%.
For the molecule `CCOC(=O)c1csc(NC(=O)c2ccc(S(=O)(=O)N(C)C)cc2)n1`, the “hERG current change (%, negative = inhibition) at 1uM” value is given as 15.4%.
Consider `CCCC(=O)Nc1ccc(-c2csc(-c3cccnc3)n2)cc1`, for which the “hERG current change (%, negative = inhibition) at 1uM” value is on record as 4.25%.
The result for `COc1ccc(OC)c(NC(=O)COC(=O)Cc2ccc(-c3ccccc3)cc2)c1` reads 12.8%.
With `Cc1cccc(NC(=O)/C(C#N)=C/c2ccc[nH]2)c1C` the figure was 24.2%.
As to `Cc1ccc(Cn2cc(C(=O)c3ccc(F)cc3)c(=O)c3cc4c(cc32)OCCO4)cc1`, the “hERG current change (%, negative = inhibition) at 1uM” value is given as -3.62%.
For the molecule `O=C(Nc1ccccc1)c1cc(Cl)nc2ccccc12`, the “hERG current change (%, negative = inhibition) at 1uM” value came out at 10.9%.
As for `CC(=C\C(=O)O)/C(=C\c1cccc2ccccc12)C(=O)O`, the “hERG current change (%, negative = inhibition) at 1uM” value is 6.73%.
The result for `COc1cc(NC(=O)c2ccc(C)cc2C)ccc1NC(=O)c1cc2ccccc2o1` reads 13.1%; that for `O=C(NCc1ccccc1)c1c[nH]c2cc3c(cc2c1=O)OCCO3`, 8%; that for `O=C(Cc1ccccc1)N/N=C/c1cc(Br)c(Br)o1`, 20.6%.
`Cc1ccc(S(=O)(=O)Nc2ccccc2C(=O)N2CCCCC2C)c(C)c1NS(C)(=O)=O` (stereo not shown): the “hERG current change (%, negative = inhibition) at 1uM” value is given as 11.1%.
With `O=C(CN(Cc1ccco1)C(=O)c1ccc(Cl)cc1)Nc1ccc(Cl)c(Cl)c1` the figure was 6.11%.
Consider `COc1cccc(OCCn2cc(C(C)=O)c3ccccc32)c1`, for which the “hERG current change (%, negative = inhibition) at 1uM” value amounted to 10.5%.
In the case of `CCn1c(SCC(=O)c2c[nH]c3ccccc23)nc2cc(S(=O)(=O)N3CCOCC3)ccc21`, the “hERG current change (%, negative = inhibition) at 1uM” value is given as 11.4%.
The result for `Cc1cccc2sc(NC(=O)C3CCN(C(=O)c4ccco4)CC3)nc12` reads -9.27%; that for `COc1ccccc1C(=O)c1nc2ccccc2n1C`, 11%; that for `COC(=O)Cc1ccc(NC(=S)NCc2ccco2)cc1`, 22.8%.
Turning to `CCc1cccc(NC(=O)CCNC(=O)Cn2ccc3ccccc3c2=O)c1`, the “hERG current change (%, negative = inhibition) at 1uM” value was 13.4%.
As to `CCOc1cc(CN2CCN(C(=O)Cc3ccccc3)CC2)ccc1OC.O=C(O)C(=O)O`, the “hERG current change (%, negative = inhibition) at 1uM” value is 10.3%.
Turning to `Cc1ccc(-n2nc(C)cc2Nc2ncc(Cl)cc2Cl)cc1`, the “hERG current change (%, negative = inhibition) at 1uM” value turned out to be 0.419%.
Regarding `O=C(O)c1ccc(Cl)c(NC(=S)NC(=O)c2ccccc2[N+](=O)[O-])c1`, the “hERG current change (%, negative = inhibition) at 1uM” value amounted to 7.29%.
On to `COc1cc(C2C(C#N)=C(N)OC3=C2C(=O)CC(C)(C)C3)ccc1OC(=O)N1CCOCC1` (stereo not shown), for which the “hERG current change (%, negative = inhibition) at 1uM” value was found to be 8.93%.
With `COc1ccc(C(C)=O)cc1CSc1nnc(C)n1-c1ccccc1`, the “hERG current change (%, negative = inhibition) at 1uM” value came to 10.5%.
With `CCSc1cc(C2C(C(=O)OC)=C(C)NC3=C2C(=O)CCC3)c(C)o1` (stereo not shown) the figure was 0.16%; with `O=c1c2ccccc2c(-c2cccc(C(F)(F)F)c2)nn1-c1ccccc1`, 9.85%.
The result for `Nc1ncnc2c1ncn2C1OC(CO)C(O)C1N` (stereo not shown) reads 3.17%.
`COC(=O)c1cccc(NC(=S)Nc2cccc(Cl)c2Cl)c1`: the “hERG current change (%, negative = inhibition) at 1uM” value is on record as 12.2%.
As for `CC(NC(=O)CN(C)S(=O)(=O)c1ccc(F)cc1)C1CC2CCC1C2` (stereo not shown), the “hERG current change (%, negative = inhibition) at 1uM” value was determined as 12.4%.
Consider `COc1cccc(NC(=O)c2ccc(NCCCN3CCC(C)CC3)c([N+](=O)[O-])c2)c1`, for which the “hERG current change (%, negative = inhibition) at 1uM” value is recorded as -18%.
On to `O=C(CCl)N1CCN(S(=O)(=O)c2ccc3c(c2)OCCCO3)CC1`, for which the “hERG current change (%, negative = inhibition) at 1uM” value is reported as 13.1%.
With `Nc1ccn(Cc2cccc(Cl)c2)n1` the figure was 9.5%.
With `O=C(/C=C/c1ccc(OCCCF)cc1)N1CCOCC1`, the “hERG current change (%, negative = inhibition) at 1uM” value is 6.4%.
As to `Brc1cccc(-c2nnc3n2CCC3)c1`, the “hERG current change (%, negative = inhibition) at 1uM” value is 13.3%.
Regarding `COc1ccc(-n2c(CN3CCN(c4ccc(F)cc4)CC3)nc3ccc([N+](=O)[O-])cc3c2=O)c(OC)c1`, the “hERG current change (%, negative = inhibition) at 1uM” value is -16.7%.
In the case of `C=CCc1ccc(OCC(O)COCC)c(OC)c1` (stereo not shown), the “hERG current change (%, negative = inhibition) at 1uM” value is 6.22%.
The result for `O=C(/C=C/c1ccc(S(=O)(=O)N2CCOCC2)cc1)N1CCN(c2ccc(F)cc2)CC1` reads -5.03%; that for `COc1ccc(CNCCc2cccc(F)c2)c2ccccc12.O=C(O)C(=O)O`, -0.935%.
Regarding `CC(Sc1nnc(-c2cccs2)n1-c1ccccc1)C(=O)NCc1ccc2c(c1)OCO2` (stereo not shown), the “hERG current change (%, negative = inhibition) at 1uM” value is given as -8.53%.
Take `COc1ccc(NS(=O)(=O)c2cccc(C(=O)NCC(c3ccco3)N3CCCC3)c2)cc1` (stereo not shown): the “hERG current change (%, negative = inhibition) at 1uM” value is listed as -10.2%.
Consider `CC(C)N1CCC(N2CCN(Cc3ccc4nonc4c3)CC2CCO)CC1` (stereo not shown), for which the “hERG current change (%, negative = inhibition) at 1uM” value is given as -6.33%.
Regarding `O=S(=O)(Cc1cc(-c2ccccc2Cl)no1)c1ccccc1`, the “hERG current change (%, negative = inhibition) at 1uM” value turned out to be 6.09%.
The result for `CCc1ccc(OCC2c3cc(OC)c(OC)cc3CCN2C(C)=O)cc1` (stereo not shown) reads 3.59%; that for `CCS(=O)(=O)c1ccc(C(=O)Nc2ccccc2)c(Cl)c1Cl`, 16.2%; that for `O=c1c2ccccc2nc(-c2ccccc2)n1CCN1CCOCC1`, 4.89%.
With `COc1cccc(NC(=O)Cn2cc(C(=O)C3CC3)c3ccccc32)c1` the figure was 0.882%; with `CCOc1cc(C(N)=O)cc(OCC)c1OCC`, 10.4%; with `CCOC(=O)c1c(C)[nH]c(C2=NNC(=Nc3ccccc3OC)SC2)c1C`, 12.7%.
Regarding `O=C(CCN1C(=O)c2ccccc2C1=O)NCc1cccc(Cl)c1`, the “hERG current change (%, negative = inhibition) at 1uM” value was 8.15%.
For `CNC(=S)N(CCc1c(C)[nH]c2ccc(C)cc12)Cc1ccco1`, the “hERG current change (%, negative = inhibition) at 1uM” value is -2.69%.
For the molecule `Cc1ccc(NS(=O)(=O)c2cccc(C(=O)NCC(c3ccc(F)cc3)N3CCOCC3)c2)cc1` (stereo not shown), the “hERG current change (%, negative = inhibition) at 1uM” value is recorded as -2.41%.
With `Cc1c(Br)c([N+](=O)[O-])nn1CC(=O)Nc1sc2c(c1C(=O)OC(C)C)CCCC2` the figure was 7.2%; with `Cc1cccc(N2C(=O)c3ccc(Br)cc3C2=O)n1`, 13.7%.
For `COCC(C)n1c(SCC(=O)Nc2nccs2)nc2ccccc2c1=O` (stereo not shown), the “hERG current change (%, negative = inhibition) at 1uM” value is given as 9.63%.
With `Cc1cc(NC(=O)CSc2nnc(C3COc4ccccc4O3)n2N)no1` (stereo not shown), the “hERG current change (%, negative = inhibition) at 1uM” value is reported as 9.32%.
In the case of `CC(NC(=O)Cn1nc(C(=O)O)c2ccccc2c1=O)C12CC3CC(CC(C3)C1)C2` (stereo not shown), the “hERG current change (%, negative = inhibition) at 1uM” value was 9.45%.
As for `CC1CN(S(=O)(=O)c2cccc(C(=O)NCc3ccco3)c2)CC(C)O1` (stereo not shown), the “hERG current change (%, negative = inhibition) at 1uM” value is recorded as 6.67%.
Take `Cc1nn(-c2ccccc2)c(N)c1C(O)(CC(=O)C(F)(F)F)C(F)(F)F` (stereo not shown): the “hERG current change (%, negative = inhibition) at 1uM” value is given as 13.4%.
As for `CCCCOP(=O)(c1ccc(N(C)C)cc1)C(O)c1c(Cl)cccc1Cl` (stereo not shown), the “hERG current change (%, negative = inhibition) at 1uM” value is 4.88%.
As to `Cc1cccc(CN2C(=O)/C(=C\c3ccc(C(=O)NCCCN4CCN(C)CC4)cc3)Oc3ccccc32)c1`, the “hERG current change (%, negative = inhibition) at 1uM” value worked out at 16.3%.
The result for `O=C(CCc1ccccc1)Nc1cc2c3c(c1)CCC(=O)N3CCC2` reads -1.85%; that for `CNC(=S)N/N=C/c1ccccc1Cl`, 4.07%.
The result for `Cc1nc2ccc(NC(=O)CCS(=O)(=O)c3ccccc3)cc2s1` reads 12.2%.
For the molecule `COC(=O)Cc1ccc(NC(=S)N2CCN(c3cccc(O)c3)CC2)cc1`, the “hERG current change (%, negative = inhibition) at 1uM” value stood at 20.6%.
As for `CC(CCc1ccccc1)NC(=O)COC(=O)CC1CC2CCC1C2` (stereo not shown), the “hERG current change (%, negative = inhibition) at 1uM” value is reported as 12.8%.
Consider `COc1ccccc1Nc1nc(-c2cccc([N+](=O)[O-])c2)nc2ccccc12`, for which the “hERG current change (%, negative = inhibition) at 1uM” value worked out at 1.19%.
With `COc1cccc(/C=N/NC(=O)Cn2cnc3c2c(=O)n(C)c(=O)n3C)c1OC` the figure was 11.6%; with `O=C(c1cnn2c(C(F)F)cc(C3CC3)nc12)N1CCCC1`, -1.23%.
Regarding `O=C(c1ccc(OC2CCN(CCc3ccccc3)CC2)cc1)N1CCCCC1CCCO` (stereo not shown), the “hERG current change (%, negative = inhibition) at 1uM” value is 7.99%.
Take `CC(=O)Cn1cnc2c(cnn2-c2ccccc2)c1=O`: the “hERG current change (%, negative = inhibition) at 1uM” value came to 13.2%.
Turning to `Cc1ccc(-c2nc(NC(=O)CSc3cc(C)c4ccccc4n3)ns2)cc1`, the “hERG current change (%, negative = inhibition) at 1uM” value is 10.5%.
The result for `Cc1cc(C)c(C(=O)CN2C(=O)C(=O)N(C3CCCC3)C2=O)cc1C` reads 16.5%; that for `CC(O)c1cccc(NC(=O)CCC(=O)O)c1` (stereo not shown), 5.28%; that for `CN1c2ccccc2C(C)(C)[C@]12C=Cc1cc(O)ccc1O2`, 16.4%.
With `COc1ccc(C2=NN(CC(=O)Nc3ccccc3C)C(=O)CC2)cc1` the figure was -7.27%; with `Cc1ccccc1NC(=O)CN1CCC(C(=O)c2ccc3c(c2)OCCO3)CC1`, -7.95%.
With `Cc1cc(NC(=O)COC(=O)c2cccc(OCc3ccccc3)c2)no1` the figure was 16.9%; with `CCOc1ccc(S(=O)(=O)N2CCN(S(=O)(=O)c3ccc(C(C)=O)cc3)CC2)cc1`, 11.2%; with `Cc1ccc(NC(=O)C2CC(=O)Nc3nncn32)cc1` (stereo not shown), 5.23%.
